Assay [1] deals with HSkMC (human skeletal muscle cells). In words: cytotoxicity call (relative viability < 0.9). To be noted: 10 µM.
Assay [2] deals with HepG2. In words: cytotoxicity call (relative viability < 0.9). To be noted: 10 µM.
The subject of assay [3] is S. aureus RN4220. In words: growth inhibition call (relative growth <= 0.2). To be noted: 50 µM.

Some of the results follow.

Regarding `CC(C)NC(=O)N(C)C[C@@H]1Oc2ccc(NS(=O)(=O)c3cccs3)cc2C(=O)N([C@H](C)CO)C[C@H]1C`, the cytotoxicity call in assay [1] and in assay [2] was “inactive” in each case. The growth inhibition call in assay [3] is “inactive”.
Regarding `Cc1ccc(S(=O)(=O)Nc2ccc3c(c2)C(=O)N([C@@H](C)CO)C[C@H](C)[C@@H](CN(C)Cc2ccc(Cl)c(Cl)c2)OCCCC[C@H](C)O3)cc1`, the cytotoxicity call in assay [1] and in assay [2] was “active” throughout. The growth inhibition call in assay [3] is “inactive”.
As for `C[C@@H]1CN([C@@H](C)CO)C(=O)c2cc(NC(=O)NC3CCCCC3)ccc2O[C@@H](C)CCCCO[C@H]1CN(C)C(=O)Cc1ccccc1`, the cytotoxicity call in assay [1] and in assay [2] was “inactive” in each case. In addition, the growth inhibition call in assay [3] is “inactive”.
In the case of `CCN(CC)CCC/N=C1/N=C(CC(=O)/C=C/c2ccc(O)c(OC)c2)C[C@@H](c2ccc(O)c(OC)c2)S1`, the cytotoxicity call in assay [1] and in assay [2] was “inactive” in each case. The growth inhibition call in assay [3] is “inactive”.
As for `C[C@H]1CN([C@@H](C)CO)C(=O)CCCn2nncc2CO[C@@H]1CN(C)C(=O)Nc1ccc(N2CCN(C)CC2)cc1`, the cytotoxicity call in assay [1] and in assay [2] was “inactive” throughout. For the same molecule, in assay [3], the growth inhibition call is “inactive”.
As for `CC(C)[Si]1(C(C)C)O[C@@H](c2ccccc2)c2cc(-c3ccc(-c4ccc(Cl)c(Cl)c4)o3)nc(CCc3ccccc3)c21`, the cytotoxicity call in assay [1] and in assay [2] was “inactive” each time. Moreover, in assay [3], the growth inhibition call was “inactive”.
With `C[C@@H]1CN([C@@H](C)CO)C(=O)Cc2cc(NC(=O)Cn3cnnn3)ccc2O[C@H]1CN(C)CC1CCCCC1`, the cytotoxicity call in assay [1] and in assay [2] was “inactive” in each case. In addition, the growth inhibition call in assay [3] was “inactive”.
As to `COc1ccc(C#Cc2cnc3c(c2)C(=O)N([C@H](C)CO)C[C@H](C)[C@H](CN(C)CC2CCOCC2)O3)cc1`, the cytotoxicity call in assay [1] and in assay [2] was “inactive” in each case. Further, the growth inhibition call in assay [3] is “inactive”.
For `COC(=O)/C=C1\N[C@H]2CCCC[C@@H]2NC1=O`, the cytotoxicity call in assay [1] and in assay [2] was “inactive” each time. In assay [3], the growth inhibition call is “inactive”.
In the case of `COc1ccccc1CNC(=O)C[C@H]1CC[C@@H]2[C@H](COC[C@H](O)CN2C(=O)Nc2ccc(F)cc2)O1`, the cytotoxicity call in assay [1] and in assay [2] was “inactive” each time. In addition, in assay [3], the growth inhibition call is “inactive”.
Take `C[C@H]1CN([C@@H](C)CO)C(=O)c2cc(C#CCN(C)C)cnc2O[C@H]1CN(C)S(=O)(=O)c1cn(C)cn1`: the cytotoxicity call in assay [1] and in assay [2] was “inactive” throughout. For the same molecule, the growth inhibition call in assay [3] is “inactive”.
Regarding `C[C@H](CO)N1C[C@H](C)[C@@H](CN(C)S(=O)(=O)c2cccs2)OCCCC[C@H](C)Oc2ccc(NS(=O)(=O)c3ccc(Cl)cc3)cc2C1=O`, the cytotoxicity call in assay [1] was “inactive”. Besides, the cytotoxicity call in assay [2] is “active”. Further, the growth inhibition call in assay [3] was “inactive”.
Consider `C[C@@H]1CN([C@@H](C)CO)C(=O)c2cccc(NC(=O)CCCCCC(=O)Nc3ccccc3N)c2O[C@@H]1CN(C)C(=O)Nc1ccc(C(F)(F)F)cc1`, for which the cytotoxicity call in assay [1] and in assay [2] was “inactive” each time. Besides, the growth inhibition call in assay [3] is “inactive”.
As to `CC(C)CC#Cc1ccc2c(c1)O[C@H](CN(C)C(=O)Cc1ccccn1)[C@@H](C)CN([C@@H](C)CO)S2(=O)=O`, the cytotoxicity call in assay [1] and in assay [2] was “inactive” each time. Besides, in assay [3], the growth inhibition call is “inactive”.
`C[C@@H]1CN([C@H](C)CO)C(=O)Cc2cc(NS(=O)(=O)c3ccc(F)cc3)ccc2O[C@@H]1CN(C)S(C)(=O)=O`: the cytotoxicity call in assay [1] and in assay [2] was “inactive” each time. Also, the growth inhibition call in assay [3] is “inactive”.
With `CC(C)(C)C(=O)CC1(O)CCCCC1`, the cytotoxicity call in assay [1] and in assay [2] was “inactive” in each case. The growth inhibition call in assay [3] is “inactive”.
In the case of `COc1ccc(CN(C)C[C@H]2Oc3ccc(NS(=O)(=O)c4cn(C)cn4)cc3CC(=O)N([C@H](C)CO)C[C@H]2C)cc1`, the cytotoxicity call in assay [1] and in assay [2] was “inactive” each time. In addition, the growth inhibition call in assay [3] was “inactive”.
Take `CNC[C@H]1OCCCC[C@@H](C)Oc2ccc(NS(=O)(=O)c3c(C)noc3C)cc2C(=O)N([C@H](C)CO)C[C@@H]1C`: the cytotoxicity call in assay [1] and in assay [2] was “inactive” in each case. Also, the growth inhibition call in assay [3] was “inactive”.
In the case of `CN1C(=O)CC(c2ccccc2)C1=O` (stereo not given), the cytotoxicity call in assay [1] and in assay [2] was “inactive” in each case. Also, in assay [3], the growth inhibition call was “inactive”.
On to `C[C@H](CO)N1C[C@H](C)[C@@H](CN(C)Cc2ccc3c(c2)OCO3)Oc2ccc(NC(=O)CCN3CCOCC3)cc2CC1=O`, for which the cytotoxicity call in assay [1] and in assay [2] was “inactive” each time. The growth inhibition call in assay [3] was “inactive”.
Turning to `C=CCC[C@H](Cc1ccc(F)cc1)C(=O)OC[C@@H](NC(=O)[C@@H](CC=C)CC(=O)N(CCO)Cc1ccccc1)c1ccccc1`, in assay [1], the cytotoxicity call is “active”. The cytotoxicity call in assay [2] is “inactive”. Also, the growth inhibition call in assay [3] was “inactive”.
In the case of `CC(C)C#Cc1cnc2c(c1)C(=O)N([C@@H](C)CO)C[C@@H](C)[C@@H](CN(C)S(=O)(=O)c1cn(C)cn1)O2`, the cytotoxicity call in assay [1] and in assay [2] was “inactive” in each case. Further, in assay [3], the growth inhibition call is “inactive”.
Regarding `C[C@H]1CN([C@@H](C)CO)C(=O)c2cc(NC(=O)CCN3CCOCC3)ccc2O[C@H]1CN(C)C(=O)Nc1ccccc1`, the cytotoxicity call in assay [1] and in assay [2] was “inactive” in each case. Further, the growth inhibition call in assay [3] was “inactive”.
With `C[C@H]1CN([C@@H](C)CO)C(=O)CCCn2nncc2CO[C@H]1CN(C)C(=O)Nc1ccc(C(C)(C)C)cc1`, the cytotoxicity call in assay [1] and in assay [2] was “inactive” in each case. For the same molecule, the growth inhibition call in assay [3] is “inactive”.
For `C[C@H]1CN([C@@H](C)CO)C(=O)c2cccc(NC(=O)Nc3cccc4ccccc34)c2O[C@H]1CN(C)C(=O)NC1CCCCC1`, the cytotoxicity call in assay [1] and in assay [2] was “inactive” each time. The growth inhibition call in assay [3] is “inactive”.

For the origin of these results see the antibiotic and cytotoxicity screens of Wong et al. (2023).
